In article PMC12040169 (PLOS Biology, 2025):
The other results are listed elsewhere or left out.

Each compound was assayed on T1, C. trachomatis L2/434/Bu expressing GFP (CTL2-GFP). Settings: total inclusion area; 28.5 h, 10 µM; inhibitor.
T1 construct: L2/434/Bu GFP intracellular growth in HeLa cells
Design: species or system HeLa; C. trachomatis total inclusion area by high-content imaging, normalised to DMSO
Outline: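 High-content imaging followed the bulk GFP/resorufin measurement: fixed, Hoechst-stained cells were scored for GFP inclusions and host nuclei per well. Total inclusion area and count served as growth proxies, nuclei number as the viability proxy. MIC calculation matched the bulk assay.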
With `Clc1cccc(-n2cnnn2)c1Cl` [CBK027665] the “% of control remaining” value was 54.9123.
In the case of `O=C(Nc1cccnc1)N1CCCCC1CO` (stereo not drawn) [CBK155990], the “% of control remaining” value is reported as 72.4144.
For `COC(=O)c1ccc(NC(=O)C2Cc3ccccc3CN2S(=O)(=O)c2cccs2)cc1` (stereo not drawn) [CBK265693], the “% of control remaining” value was 113.986.
With `COc1cc(F)ccc1-c1ccc(NS(C)(=O)=O)c2ccccc12` [CBK083744] the “% of control remaining” value was 86.0332.
With `O=C(O)CCSC(CC(=O)c1ccccc1)c1ccc(Cl)cc1` (stereo not drawn) [CBK077251] the “% of control remaining” value was 92.672.
For `C[C@@H]1C(=O)O[C@H]2[C@H]1CC[C@@]1(C)Cc3sc(NC(=O)CN(C)C)nc3[C@@H](C)[C@H]21` [CBK289431], the “% of control remaining” value was 102.387.
With `NC(=O)CN1CCN(c2nccnc2Oc2ccc(F)cc2)CC1` [CBK083018T] the “% of control remaining” value was 108.277.
`O=c1[nH]c(=S)c2c(n1CCc1ccccn1)CCCC2` [CBK023951G] was tested, and the “% of control remaining” value was 84.4701.
`O=C(O)CC(C(=O)O)c1ccc(Cl)cc1Cl` (stereo not drawn) [CBK268523] was tested, and the “% of control remaining” value was 106.257.
`CCCCOc1ccc(C(=O)N(C)c2cnn(C)c2)c(O)c1` [CBK306167] was tested, and the “% of control remaining” value was 28.0231.
In the case of `CCn1cc(-c2cncn2CC(C)N2CCCCC2)cn1` (stereo not drawn) [CBK281556], the “% of control remaining” value is reported as 88.9033.
With `CC(C)C1C(=O)Nc2ccccc2N1C(=O)NCCC(=O)O` (stereo not drawn) [CBK286659] the “% of control remaining” value was 72.8809.
With `CC(C)(C)C(=O)Nc1ccc(S(=O)(=O)NC2CCCCC2)cc1` [CBK268783] the “% of control remaining” value was 103.221.
In the case of `COCCOc1cccc(OCCOc2nccnc2N2CCNC[C@H]2C)c1` [CBK048435], the “% of control remaining” value is reported as 103.203.
`FC(F)(F)c1ccc(OCCCc2ccncc2)nc1` [CBK115791] was tested, and the “% of control remaining” value was 90.7872.
With `C=CCN1C(=O)C2(CC(=O)N(CCC3CCCCC3)C2=O)c2ccccc21` (stereo not drawn) [CBK075160] the “% of control remaining” value was 77.6168.
`O=C(Nc1ccc(S(=O)(=O)Nc2ncccn2)cc1)c1ccc(N2C(=O)c3ccccc3C2=O)cc1` [CBK264868] was tested, and the “% of control remaining” value was 96.192.
For `Cc1ccccc1CNCCNCC(C)O` (stereo not drawn) [CBK268718C], the “% of control remaining” value was 93.4703.
In the case of `O=C(Nc1ccccc1F)c1cc(Cl)sc1Cl` [CBK085969], the “% of control remaining” value is reported as 92.5767.
With `Cc1ccc(S(=O)(=O)N2CCC(N3CCN(CCO)CC3)CC2)cc1` [CBK264656G] the “% of control remaining” value was 101.776.
`CNc1c(C)cc([N+](C)(C)C)cc1C` [CBK261007I] was tested, and the “% of control remaining” value was 104.048.
`Cc1c(CNCCN2CCCC2=O)c2ccccc2n1C` [CBK281519] was tested, and the “% of control remaining” value was 88.0427.
`Cc1cc(F)ccc1S(=O)(=O)NCC1CC(=O)Nc2ccccc21` (stereo not drawn) [CBK305210] was tested, and the “% of control remaining” value was 75.1844.
For `CCN1CCCC1CN(Cc1ccccn1)Cc1ccco1` (stereo not drawn) [CBK283161], the “% of control remaining” value was 88.8873.
